Results from the supplement of paper PMC9151546.
Many values rest on one well or one pass, so single values are uncertain.

How the values were obtained:
CHO-K1 [1] = experiment: micronucleus frequency (% of nucleated events); higher = more micronuclei (genotoxic)
CHO-K1 [2] = experiment: hypodiploid nuclei frequency (% of nucleated events); higher = more hypodiploid events (aneugenic)
Experimental: (§1)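 Flow-cytometric in vitro micronucleus assay (Litron MicroFlow) in CHO-K1 cells in 96-well plates, 19 concentrations (4.5-200 µM, n=1 per concentration). Without S9, cells were exposed for 24 h and sampled at 48 h. With Aroclor 1254-induced rat liver S9, cells were exposed for 3-4 h and sampled at 27-28 h. Read-outs are %MN and %hypodiploid nuclei relative to nucleated events, and relative survival as the nuclei-to-bead ratio versus the 1% DMSO vehicle control (x100).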

CHO-K1 [3] = experiment: relative survival (nuclei to bead ratio vs DMSO control) (% of vehicle control); higher = more surviving cells
Experimental: as §1

[4] = concentration: 4.48 (µM), S9 metabolic activation: with S9, exposure time: 3-4 hours
[5] = concentration: 4.48 (µM), S9 metabolic activation: without S9, exposure time: 24 hours
[6] = concentration: 5.6 (µM), S9 metabolic activation: with S9, exposure time: 3-4 hours
[7] = concentration: 5.6 (µM), S9 metabolic activation: without S9, exposure time: 24 hours
[8] = concentration: 7 (µM), S9 metabolic activation: with S9, exposure time: 3-4 hours
[9] = concentration: 7 (µM), S9 metabolic activation: without S9, exposure time: 24 hours
[10] = concentration: 8.75 (µM), S9 metabolic activation: with S9, exposure time: 3-4 hours
[11] = concentration: 8.75 (µM), S9 metabolic activation: without S9, exposure time: 24 hours
[12] = concentration: 10.9 (µM), S9 metabolic activation: with S9, exposure time: 3-4 hours
[13] = concentration: 10.9 (µM), S9 metabolic activation: without S9, exposure time: 24 hours
[14] = concentration: 13.7 (µM), S9 metabolic activation: with S9, exposure time: 3-4 hours
[15] = concentration: 13.7 (µM), S9 metabolic activation: without S9, exposure time: 24 hours
[16] = concentration: 17.1 (µM), S9 metabolic activation: with S9, exposure time: 3-4 hours
[17] = concentration: 17.1 (µM), S9 metabolic activation: without S9, exposure time: 24 hours
[18] = concentration: 21.4 (µM), S9 metabolic activation: with S9, exposure time: 3-4 hours
[19] = concentration: 21.4 (µM), S9 metabolic activation: without S9, exposure time: 24 hours
[20] = concentration: 26.7 (µM), S9 metabolic activation: with S9, exposure time: 3-4 hours
[21] = concentration: 26.7 (µM), S9 metabolic activation: without S9, exposure time: 24 hours
[22] = concentration: 33.4 (µM), S9 metabolic activation: with S9, exposure time: 3-4 hours
[23] = concentration: 33.4 (µM), S9 metabolic activation: without S9, exposure time: 24 hours
[24] = concentration: 41.7 (µM), S9 metabolic activation: with S9, exposure time: 3-4 hours
[25] = concentration: 41.7 (µM), S9 metabolic activation: without S9, exposure time: 24 hours
[26] = concentration: 52.2 (µM), S9 metabolic activation: with S9, exposure time: 3-4 hours
[27] = concentration: 52.2 (µM), S9 metabolic activation: without S9, exposure time: 24 hours
[28] = concentration: 65.2 (µM), S9 metabolic activation: with S9, exposure time: 3-4 hours
[29] = concentration: 65.2 (µM), S9 metabolic activation: without S9, exposure time: 24 hours
[30] = concentration: 81.5 (µM), S9 metabolic activation: with S9, exposure time: 3-4 hours
[31] = concentration: 81.5 (µM), S9 metabolic activation: without S9, exposure time: 24 hours
[32] = concentration: 102 (µM), S9 metabolic activation: with S9, exposure time: 3-4 hours
[33] = concentration: 102 (µM), S9 metabolic activation: without S9, exposure time: 24 hours
[34] = concentration: 127 (µM), S9 metabolic activation: with S9, exposure time: 3-4 hours
[35] = concentration: 127 (µM), S9 metabolic activation: without S9, exposure time: 24 hours
[36] = concentration: 159 (µM), S9 metabolic activation: with S9, exposure time: 3-4 hours
[37] = concentration: 159 (µM), S9 metabolic activation: without S9, exposure time: 24 hours
[38] = concentration: 199 (µM), S9 metabolic activation: with S9, exposure time: 3-4 hours
[39] = concentration: 199 (µM), S9 metabolic activation: without S9, exposure time: 24 hours
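Throughout, for hypodiploid nuclei frequency (% of nucleated events): hypodiploid nuclei gated on a flow cytometer with 488 nm excitation after SYTOX Green staining, cultures at 37 °C, positive controls vinblastine without S9 and cyclophosphamide with S9.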
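Throughout, for micronucleus frequency (% of nucleated events): cells lysed with nuclei stained by SYTOX Green, then micronucleus-gated events counted against nucleated events by flow cytometry with 488 nm excitation.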
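Throughout, for relative survival (nuclei to bead ratio vs DMSO control): Lysed-cell nuclei stained with SYTOX Green and counted against counting beads by flow cytometry at 488 nm excitation, with vinblastine (no S9) and cyclophosphamide (plus S9) as positive controls.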

Clc1ccc(Cl)c(Cl)c1 [1,2,4-Trichlorobenzene]
micronucleus frequency (CHO-K1 [1]; [4]): 0.96% | micronucleus frequency (CHO-K1 [1]; [5]): 1.62% | micronucleus frequency (CHO-K1 [1]; [6]): 0.8% | micronucleus frequency (CHO-K1 [1]; [7]): 1.7% | micronucleus frequency (CHO-K1 [1]; [8]): 1.22% | micronucleus frequency (CHO-K1 [1]; [9]): 1.52% | micronucleus frequency (CHO-K1 [1]; [10]): 0.84% | micronucleus frequency (CHO-K1 [1]; [11]): 1.68% | micronucleus frequency (CHO-K1 [1]; [12]): 0.87% | micronucleus frequency (CHO-K1 [1]; [13]): 1.14% | micronucleus frequency (CHO-K1 [1]; [14]): 1% | micronucleus frequency (CHO-K1 [1]; [15]): 1.28% | micronucleus frequency (CHO-K1 [1]; [16]): 1.32% | micronucleus frequency (CHO-K1 [1]; [17]): 1.68% | micronucleus frequency (CHO-K1 [1]; [18]): 1.3% | micronucleus frequency (CHO-K1 [1]; [19]): 1.78% | micronucleus frequency (CHO-K1 [1]; [20]): 0.94% | micronucleus frequency (CHO-K1 [1]; [21]): 0.94% | micronucleus frequency (CHO-K1 [1]; [22]): 1.1% | micronucleus frequency (CHO-K1 [1]; [23]): 1.96% | micronucleus frequency (CHO-K1 [1]; [24]): 1.42% | micronucleus frequency (CHO-K1 [1]; [25]): 1.84% | micronucleus frequency (CHO-K1 [1]; [26]): 1.66% | micronucleus frequency (CHO-K1 [1]; [27]): 1.76% | micronucleus frequency (CHO-K1 [1]; [28]): 1.2% | micronucleus frequency (CHO-K1 [1]; [29]): 2% | micronucleus frequency (CHO-K1 [1]; [30]): 1.35% | micronucleus frequency (CHO-K1 [1]; [31]): 1.6% | micronucleus frequency (CHO-K1 [1]; [32]): 1.2% | micronucleus frequency (CHO-K1 [1]; [33]): 1.64% | micronucleus frequency (CHO-K1 [1]; [34]): 1.22% | micronucleus frequency (CHO-K1 [1]; [35]): 2.02% | micronucleus frequency (CHO-K1 [1]; [36]): 1.26% | micronucleus frequency (CHO-K1 [1]; [37]): 2.06% | micronucleus frequency (CHO-K1 [1]; [38]): 1.26% | micronucleus frequency (CHO-K1 [1]; [39]): 2.56% | hypodiploid nuclei frequency (CHO-K1 [2]; [4]): 0.2% | hypodiploid nuclei frequency (CHO-K1 [2]; [5]): 0.44% | hypodiploid nuclei frequency (CHO-K1 [2]; [6]): 0.24% | hypodiploid nuclei frequency (CHO-K1 [2]; [7]): 0.6% | hypodiploid nuclei frequency (CHO-K1 [2]; [8]): 0.32% | hypodiploid nuclei frequency (CHO-K1 [2]; [9]): 0.78% | hypodiploid nuclei frequency (CHO-K1 [2]; [10]): 0.12% | hypodiploid nuclei frequency (CHO-K1 [2]; [11]): 0.52% | hypodiploid nuclei frequency (CHO-K1 [2]; [12]): 0.2% | hypodiploid nuclei frequency (CHO-K1 [2]; [13]): 0.54% | hypodiploid nuclei frequency (CHO-K1 [2]; [14]): 0.18% | hypodiploid nuclei frequency (CHO-K1 [2]; [15]): 0.5% | hypodiploid nuclei frequency (CHO-K1 [2]; [16]): 0.14% | hypodiploid nuclei frequency (CHO-K1 [2]; [17]): 0.56% | hypodiploid nuclei frequency (CHO-K1 [2]; [18]): 0.26% | hypodiploid nuclei frequency (CHO-K1 [2]; [19]): 0.7% | hypodiploid nuclei frequency (CHO-K1 [2]; [20]): 0.3% | hypodiploid nuclei frequency (CHO-K1 [2]; [21]): 0.58% | hypodiploid nuclei frequency (CHO-K1 [2]; [22]): 0.24% | hypodiploid nuclei frequency (CHO-K1 [2]; [23]): 0.56% | hypodiploid nuclei frequency (CHO-K1 [2]; [24]): 0.14% | hypodiploid nuclei frequency (CHO-K1 [2]; [25]): 0.74% | hypodiploid nuclei frequency (CHO-K1 [2]; [26]): 0.18% | hypodiploid nuclei frequency (CHO-K1 [2]; [27]): 0.76% | hypodiploid nuclei frequency (CHO-K1 [2]; [28]): 0.24% | hypodiploid nuclei frequency (CHO-K1 [2]; [29]): 1.02% | hypodiploid nuclei frequency (CHO-K1 [2]; [30]): 0.1% | hypodiploid nuclei frequency (CHO-K1 [2]; [31]): 0.68% | hypodiploid nuclei frequency (CHO-K1 [2]; [32]): 0.32% | hypodiploid nuclei frequency (CHO-K1 [2]; [33]): 0.76% | hypodiploid nuclei frequency (CHO-K1 [2]; [34]): 0.24% | hypodiploid nuclei frequency (CHO-K1 [2]; [35]): 0.9% | hypodiploid nuclei frequency (CHO-K1 [2]; [36]): 0.24% | hypodiploid nuclei frequency (CHO-K1 [2]; [37]): 1.26% | hypodiploid nuclei frequency (CHO-K1 [2]; [38]): 0.16% | hypodiploid nuclei frequency (CHO-K1 [2]; [39]): 1.4% | relative survival (CHO-K1 [3]; [4]): 110 | relative survival (CHO-K1 [3]; [5]): 112 | relative survival (CHO-K1 [3]; [6]): 116 | relative survival (CHO-K1 [3]; [7]): 119 | relative survival (CHO-K1 [3]; [8]): 102 | relative survival (CHO-K1 [3]; [9]): 120 | relative survival (CHO-K1 [3]; [10]): 91 | relative survival (CHO-K1 [3]; [11]): 113 | relative survival (CHO-K1 [3]; [12]): 78.5 | relative survival (CHO-K1 [3]; [13]): 148 | relative survival (CHO-K1 [3]; [14]): 118 | relative survival (CHO-K1 [3]; [15]): 114 | relative survival (CHO-K1 [3]; [16]): 91.4 | relative survival (CHO-K1 [3]; [17]): 118 | relative survival (CHO-K1 [3]; [18]): 95.8 | relative survival (CHO-K1 [3]; [19]): 112 | relative survival (CHO-K1 [3]; [20]): 108 | relative survival (CHO-K1 [3]; [21]): 96.2 | relative survival (CHO-K1 [3]; [22]): 91.7 | relative survival (CHO-K1 [3]; [23]): 103 | relative survival (CHO-K1 [3]; [24]): 84.8 | relative survival (CHO-K1 [3]; [25]): 84.4 | relative survival (CHO-K1 [3]; [26]): 80.8 | relative survival (CHO-K1 [3]; [27]): 79 | relative survival (CHO-K1 [3]; [28]): 102 | relative survival (CHO-K1 [3]; [29]): 91.6 | relative survival (CHO-K1 [3]; [30]): 74.1 | relative survival (CHO-K1 [3]; [31]): 81.6 | relative survival (CHO-K1 [3]; [32]): 78.1 | relative survival (CHO-K1 [3]; [33]): 80.1 | relative survival (CHO-K1 [3]; [34]): 78.4 | relative survival (CHO-K1 [3]; [35]): 75.2 | relative survival (CHO-K1 [3]; [36]): 80.7 | relative survival (CHO-K1 [3]; [37]): 85.8 | relative survival (CHO-K1 [3]; [38]): 96 | relative survival (CHO-K1 [3]; [39]): 64.1
